# Data from the supplement of paper PMC8728848.
# The other results are listed elsewhere or left out.
# Columns and labels:
# Assay in all cases: glycan array binding signal (z-score within array); higher = stronger binding
# Settings in all cases: glycan notation: IUPAC condensed, linker removed
# [1] = biological target: Fuc(a1-2)Gal(b1-4)GlcNAc(b1-3)Gal(b1-4)GlcNAc(b1-2)Man(a1-3)[Fuc(a1-2)Gal(b1-4)GlcNAc(b1-3)Gal(b1-4)GlcNAc(b1-2)Man(a1-6)]Man(b1-4)GlcNAc(b1-4)GlcNAc
# How it was run: (§1)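 The binding signal is a Z-score computed within each array. Data were drawn from 3228 arrays in the Consortium for Functional Glycomics database, restricted to those with a known protein sequence. Scores were averaged over arrays of the same protein sequence at different concentrations or buffers, and over linkers, and negative values can be taken as non-binding.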
# [2] = biological target: Fuc(a1-2)Gal(b1-4)GlcNAc(b1-3)Gal(b1-4)GlcNAc(b1-3)Gal(b1-4)GlcNAc
# How it was run: as §1
# [3] = biological target: Fuc(a1-2)Gal(b1-4)GlcNAc(b1-3)GalNAc
# How it was run: as §1
# [4] = biological target: Fuc(a1-2)Gal(b1-4)GlcNAc(b1-3)[Fuc(a1-2)Gal(b1-4)GlcNAc(b1-6)]GalNAc
# How it was run: as §1
# [5] = biological target: Fuc(a1-2)Gal(b1-4)GlcNAc(b1-3)[Fuc(a1-3)[Gal(b1-4)]GlcNAc(b1-6)]Gal(b1-4)Glc
# How it was run: as §1
# [6] = biological target: Fuc(a1-2)Gal(b1-4)GlcNAc(b1-6)GalNAc
# How it was run: as §1
# [7] = biological target: Fuc(a1-2)Gal(b1-4)GlcNAc6S
# How it was run: as §1
# [8] = biological target: Fuc(a1-2)Gal(b1-4)[Fuc(a1-3)]GlcNAc
# How it was run: as §1
# [9] = biological target: Fuc(a1-2)Gal(b1-4)[Fuc(a1-3)]GlcNAc(b1-2)Man(a1-3)[Fuc(a1-2)Gal(b1-4)[Fuc(a1-3)]GlcNAc(b1-2)Man(a1-6)]Man(b1-4)GlcNAc(b1-4)[Fuc(a1-6)]GlcNAc
# How it was run: as §1
# [10] = biological target: Fuc(a1-2)Gal(b1-4)[Fuc(a1-3)]GlcNAc(b1-2)[Fuc(a1-2)Gal(b1-4)[Fuc(a1-3)]GlcNAc(b1-4)]Man(a1-3)[Fuc(a1-2)Gal(b1-4)[Fuc(a1-3)]GlcNAc(b1-2)Man(a1-6)]Man(b1-4)GlcNAc(b1-4)GlcNAc
# How it was run: as §1
# [11] = biological target: Fuc(a1-2)Gal(b1-4)[Fuc(a1-3)]GlcNAc(b1-3)Gal(b1-4)[Fuc(a1-3)]GlcNAc
# How it was run: as §1
# [12] = biological target: Fuc(a1-2)Gal(b1-4)[Fuc(a1-3)]GlcNAc(b1-3)Gal(b1-4)[Fuc(a1-3)]GlcNAc(b1-3)Gal(b1-4)[Fuc(a1-3)]GlcNAc
# How it was run: as §1
# [13] = biological target: Fuc(a1-2)Gal(b1-4)[Fuc(a1-3)]GlcNAc(b1-3)GalNAc
# How it was run: as §1
# [14] = biological target: Fuc(a1-2)Gal(b1-4)[Fuc(a1-3)]GlcNAc(b1-3)[Neu5Ac(a2-6)Gal(b1-4)GlcNAc(b1-6)]Gal(b1-4)Glc
# How it was run: as §1
# [15] = biological target: Fuc(a1-2)Gal3S(b1-4)GlcNAc
# How it was run: as §1
# [16] = biological target: Fuc(a1-2)Gal6S(b1-3)GlcNAc
# How it was run: as §1
# [17] = biological target: Fuc(a1-2)Gal6S(b1-3)GlcNAc6S
# How it was run: as §1
# [18] = biological target: Fuc(a1-2)Gal6S(b1-4)Glc
# How it was run: as §1
# [19] = biological target: Fuc(a1-2)Gal6S(b1-4)Glc6S
# How it was run: as §1
# [20] = biological target: Fuc(a1-2)[Gal(a1-3)]Gal
# How it was run: as §1
# [21] = biological target: Fuc(a1-2)[Gal(a1-3)]Gal(b1-3)GalNAc
# How it was run: as §1
# [22] = biological target: Fuc(a1-2)[Gal(a1-3)]Gal(b1-3)GalNAc(b1-3)Gal(a1-4)Gal(b1-4)Glc
# How it was run: as §1
# [23] = biological target: Fuc(a1-2)[Gal(a1-3)]Gal(b1-3)GlcNAc
# How it was run: as §1
# [24] = biological target: Fuc(a1-2)[Gal(a1-3)]Gal(b1-3)GlcNAc(b1-2)Man(a1-3)[Fuc(a1-2)[Gal(a1-3)]Gal(b1-3)GlcNAc(b1-2)Man(a1-6)]Man(b1-4)GlcNAc(b1-4)GlcNAc
# How it was run: as §1
# [25] = biological target: Fuc(a1-2)[Gal(a1-3)]Gal(b1-3)GlcNAc(b1-2)Man(a1-3)[Fuc(a1-2)[Gal(a1-3)]Gal(b1-3)GlcNAc(b1-2)Man(a1-6)]Man(b1-4)GlcNAc(b1-4)[Fuc(a1-6)]GlcNAc
# How it was run: as §1
# [26] = biological target: Fuc(a1-2)[Gal(a1-3)]Gal(b1-3)GlcNAc(b1-3)GalNAc
# How it was run: as §1
# [27] = biological target: Fuc(a1-2)[Gal(a1-3)]Gal(b1-3)GlcNAc(b1-6)GalNAc
# How it was run: as §1
# [28] = biological target: Fuc(a1-2)[Gal(a1-3)]Gal(b1-4)Glc
# How it was run: as §1
# [29] = biological target: Fuc(a1-2)[Gal(a1-3)]Gal(b1-4)GlcNAc
# How it was run: as §1
# [30] = biological target: Fuc(a1-2)[Gal(a1-3)]Gal(b1-4)GlcNAc(b1-2)Man
# How it was run: as §1
binder,measurement,setting,value
Di AAL2 (Agrocybe aegerita) (protein) MTSNVITQDLPIPVASRGFADIVGFGLDGVVIGRNAVNLQPFLAVKNFAQNAGGWLTTKHVRLIADTTGTGKGDIVGFGNAGVYVSVNNGKNTFADPPKMVIANFGYDAGGWRVEKHLRYLADIRKIGRADIIGFGEKGVLVSRNNGGLNFGPATLVLKDFGYDAGGWRLDRHLRFLADVTGNGHLDIVGFGDKHVFISRNNGDGTFAPAKSVIDNFCIDAGGWKIGDHPRFVADLTGDGTADIIGCGKAGCWVALNNGGGVFGQVKLVINDFGTDKGWQAAKHPRFIADLTGNGRGDVVGFGNAGVYVALNNGDGTFQSAKLVLKDFGVQQGWTVSKHRRFVVDLTGDGCADIIGFGEKETLVSYNDGKGNFGPVKALTNDFSFSGGKWAPETTVCWMANLDSSRHPAPAPMTSNVITQDLPIPVASRGFADIVGFGLDGVVIGRNAVNLQPFLAVKNFAQNAGGWLTTKHVRLIADTTGTGKGDIVGFGNAGVYVSVNNGKNTFADPPKMVIANFGYDAGGWRVEKHLRYLADIRKIGRADIIGFGEKGVLVSRNNGGLNFGPATLVLKDFGYDAGGWRLDRHLRFLADVTGNGHLDIVGFGDKHVFISRNNGDGTFAPAKSVIDNFCIDAGGWKIGDHPRFVADLTGDGTADIIGCGKAGCWVALNNGGGVFGQVKLVINDFGTDKGWQAAKHPRFIADLTGNGRGDVVGFGNAGVYVALNNGDGTFQSAKLVLKDFGVQQGWTVSKHRRFVVDLTGDGCADIIGFGEKETLVSYNDGKGNFGPVKALTNDFSFSGGKWAPETTVCWMANLDSSRH,glycan array binding signal (z-score),[1],-0.185
same,glycan array binding signal (z-score),[2],-0.328
same,glycan array binding signal (z-score),[3],-0.309
same,glycan array binding signal (z-score),[4],-0.287
same,glycan array binding signal (z-score),[5],-0.288
same,glycan array binding signal (z-score),[6],-0.319
same,glycan array binding signal (z-score),[7],-0.341
same,glycan array binding signal (z-score),[8],-0.337
same,glycan array binding signal (z-score),[9],-0.294
same,glycan array binding signal (z-score),[10],-0.32
same,glycan array binding signal (z-score),[11],-0.337
same,glycan array binding signal (z-score),[12],-0.338
same,glycan array binding signal (z-score),[13],-0.323
same,glycan array binding signal (z-score),[14],-0.315
same,glycan array binding signal (z-score),[15],-0.341
same,glycan array binding signal (z-score),[16],-0.322
same,glycan array binding signal (z-score),[17],-0.227
same,glycan array binding signal (z-score),[18],-0.334
same,glycan array binding signal (z-score),[19],-0.338
same,glycan array binding signal (z-score),[20],-0.338
same,glycan array binding signal (z-score),[21],-0.333
same,glycan array binding signal (z-score),[22],0.223
same,glycan array binding signal (z-score),[23],-0.338
same,glycan array binding signal (z-score),[24],-0.328
same,glycan array binding signal (z-score),[25],-0.33
same,glycan array binding signal (z-score),[26],-0.312
same,glycan array binding signal (z-score),[27],-0.324
same,glycan array binding signal (z-score),[28],-0.329
same,glycan array binding signal (z-score),[29],-0.335
same,glycan array binding signal (z-score),[30],-0.314
